Data taken from the supplement of paper PMC11880418.
Where a name gives a salt, the structure may show the parent alone. Some of the results follow. The data scatter; read single values as rough.

Columns and labels:
Test in all cases: ALDHbr (CSC) cell proportion score relative to DMSO vehicle (ratio to DMSO); breast (SUM159) / gastric (MKN45) / pancreatic (PANC1) / colon cancer lines; ALDHbr cells have high ALDH activity and are rich in cancer stem cells (CSC); higher = more CSC (ALDHbr) cells remaining
Details in all cases: 10 µM; 72 h
[1] = tested on: MKN45
[2] = tested on: PANC1
[3] = tested on: SUM159
[4] = tested on: T84
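Further: High-content imaging of ALDEFLUOR-stained cells with Hoechst-labelled nuclei in 384-well plates, triplicate wells, scored as Z-score against 0.1% DMSO vehicle, negative meaning fewer ALDHbr cells.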

| Structure (SMILES) | ALDHbr [1] | ALDHbr [2] | ALDHbr [3] | ALDHbr [4] |
| --- | --- | --- | --- | --- |
| c1ccc([C@H]2CN3CCSC3=N2)cc1 [Levamisole hydrochloride] | 0.991 | 0.926 | 0.921 | 0.93 |
| CC(C)c1ccc2oc3nc(N)c(C(=O)O)cc3c(=O)c2c1 [Amlexanox] | 0.869 | 0.867 | 1 | 0.881 |
| COc1ccc(-c2cc(=O)c3c(O)cc(O[C@@H]4O[C@H](CO[C@@H]5O[C@@H](C)[C@H](O)[C@@H](O)[C@H]5O)[C@@H](O)[C@H](O)[C@H]4O)cc3o2)cc1O [Diosmin] | 1.1 | 1.09 | 0.978 | 0.905 |
| O=C(O)CCCC[C@@H]1SC[C@@H]2NC(=O)N[C@@H]21 [Biotin] | 0.978 | 0.911 | 1.07 | 0.946 |
| N[C@H]1CONC1=O [(S)-(-)-Cycloserine] | 1.12 | 0.986 | 1.16 | 0.851 |
| OC(c1cc(C(F)(F)F)nc2c(C(F)(F)F)cccc12)C1CCCCN1 (stereo not given) [Mefloquine hydrochloride] | 1.13 | 1.41 | 2.07 | 0.436 |
| CCCCc1ncc(/C=C(\Cc2cccs2)C(=O)O)n1Cc1ccc(C(=O)O)cc1 [Eprosartan mesylate] | 0.966 | 1.03 | 1.13 | 1.09 |
| Cc1cc(C(=O)NNCc2ccccc2)no1 [Isocarboxazid] | 1.04 | 0.992 | 1.31 | 1.05 |
| Fc1ccc(C(c2ccc(F)cc2)N2CCN(C/C=C/c3ccccc3)CC2)cc1 [Flunarizine dihydrochloride] | 0.471 | 1.01 | 1.38 | 0.953 |
| CCC(Cc1c(I)cc(I)c(N)c1I)C(=O)O (stereo not given) [Iopanoic acid] | 1.07 | 0.879 | 1.07 | 0.94 |
